Source: the supplement of paper PMC4967469
By IC50 is meant the dose at which the fit gives 50% viability; fits outside the tested doses are given as limits. The AUC spans the tested range (256-fold, ending at the top dose) of the same fit; it is 1 without any effect and falls as sensitivity rises. A top dose marked as inferred was derived from the fitted curves, not read from the paper. For some assays here: Where an entry number is given, a second screen of the drug exists; the two often differ.

Assays:
Test in all cases: Viability of human cancer cell lines after 72 h of drug (GDSC screen)
[1] = compound: Cc1cc([C@@H](C)Nc2ccccc2C(=O)O)c2nc(N3CCOCC3)cc(=O)n2c1 [AZD6482]
Description: (§1)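 Human cancer cell lines in 384-well plates, medium with 10% serum, drug for 72 h over a 256-fold dose range (nine 2-fold or five 4-fold steps up to the top dose). Adherent lines were fixed and stained with the nucleic acid dye Syto60, suspension lines read with resazurin; signal relative to control wells, capped at 0 and 100%. One two-parameter sigmoid per drug and line, fitted in a mixed model over all curves with the slope shared within a line.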

[2] = compound: Cn1ncnc1[C@H]1c2n[nH]c(=O)c3cc(F)cc(c23)N[C@@H]1c1ccc(F)cc1 [BMN-673]; conditions: top dose 10 µM; top dose inferred
Description: as §1

[3] = compound: NS(=O)(=O)OC[C@@H]1C[C@@H](n2ccc3c(N[C@H]4CCc5ccccc54)ncnc32)C[C@@H]1O [MLN4924]; conditions: top dose 1 µM; top dose inferred
Description: as §1

[4] = top dose 5 µM, screen: GDSC drug entry 1066, top dose inferred
[5] = top dose 5.12 µM, screen: GDSC drug entry 156

Cell Line	AUC [1, 4]	IC50 [1, 4] [nM]	AUC [1, 5]	IC50 [1, 5] [nM]	AUC [2]	IC50 [2] [nM]	AUC [3]	IC50 [3] [nM]
42-MG-BA (glioma, adherent)	0.782	2240	0.805	2790	0.771	4090	0.764	387
647-V (bladder, adherent)	0.885	> 5000	0.873	4990	0.462	492	0.529	75
697 (lymphoblastic leukaemia, suspension)	0.845	2580	0.869	3210	0.117	55.3	0.884	713
769-P (kidney, adherent)	0.822	3270	0.908	> 5120	0.625	1430	0.863	> 1000
786-0 (kidney, adherent)	0.788	2000	0.688	1030	0.911	> 10000	0.771	353
5637 (bladder, adherent)	0.962	> 5000	0.976	> 5120	0.78	3700	0.739	278
23132-87 (stomach, adherent)	0.709	1250	0.839	3680	0.789	4600	0.909	> 1000
A3-KAW (B-cell lymphoma, suspension)	0.993	> 5000	0.973	> 5120	0.718	2220	0.713	215
A4-Fuk (B-cell lymphoma, suspension)	0.84	3650	0.801	2630	0.914	> 10000	0.872	> 1000
A172 (glioma, adherent)	0.911	> 5000	0.949	> 5120	0.735	2830	0.639	149
A204 (rhabdomyosarcoma, adherent)	0.781	2720	0.775	2650	0.669	2140	0.807	707
A431 (skin, adherent)	0.923	> 5000	0.817	2700	0.9	> 10000	0.811	505
ACHN (kidney, adherent)	0.758	1960	0.927	> 5120	0.98	> 10000	0.865	> 1000
AM-38 (glioma, semi-adherent)	0.911	> 5000	0.97	> 5120	0.972	> 10000	0.981	> 1000
AN3-CA (endometrium, adherent)			0.84	4020	0.936	> 10000	0.862	995
ARH-77 (myeloma, suspension)	0.988	> 5000	0.823	2880	0.673	1860	0.813	516

Cell Line	AUC [1, 4]	IC50 [1, 4] [nM]	AUC [1, 5]	IC50 [1, 5] [nM]	AUC [2]	IC50 [2] [nM]	AUC [3]	IC50 [3] [nM]
BALL-1 (B-cell leukaemia, suspension)	0.989	> 5000			0.663	1550	0.978	> 1000
BC-1 (B-cell lymphoma, suspension)	0.978	> 5000	0.936	> 5120	0.861	6490	0.654	155
BCPAP (thyroid, adherent)	0.904	> 5000	0.927	> 5120	0.826	5320	0.827	537
BE2-M17 (neuroblastoma, adherent)	0.966	> 5000	0.979	> 5120	0.981	> 10000	0.986	> 1000
BEN (non-small cell lung carcinoma, adherent)	0.965	> 5000	0.986	> 5120	0.982	> 10000	0.985	> 1000
BFTC-905 (bladder, adherent)	0.877	3820	0.911	> 5120	0.879	7840	0.721	237
BFTC-909 (kidney, adherent)	0.925	> 5000	0.885	> 5120	0.689	2090	0.835	633
BHY (head and neck, adherent)	0.911	> 5000	0.847	3790	0.918	> 10000	0.934	> 1000
BICR22 (head and neck, adherent)	0.926	> 5000	0.753	1940	0.633	1540	0.694	240
BICR78 (head and neck, adherent)	0.83	3830	0.952	> 5120	0.873	> 10000	0.72	294
BPH-1 (prostate, adherent)	0.778	2250	0.767	2100	0.773	4300	0.821	660
BT-549 (breast, adherent)	0.77	2680			0.945	> 10000	0.793	671
BV-173 (chronic myeloid leukaemia, suspension)	0.932	> 5000	0.986	> 5120	0.157	66.3	0.675	180
BxPC-3 (pancreas, adherent)	0.91	> 5000	0.786	2490	0.939	> 10000	0.789	500
C3A (liver, adherent)	0.979	> 5000	0.943	> 5120	0.914	> 10000	0.943	> 1000
